Experimental data: PubChem BioAssay AID588795 (National Center for Advancing Translational Sciences (NCATS), 2011)
Values joined by “and” are separate entries in the source; they are usually repeats but may differ in a detail not shown here. Identical values can stand only once. The whole screen tested about 390,000 compounds, of which about 1,400 (0.36%) were called active. The inconclusive results got no clear call from the source; some entries with a clear call stand among them for comparison. The call rests on the fitted dose curve; in most records, active means well fitted inhibition curve with a large enough effect; inconclusive means small, poorly fitted or top-dose-only effect; inactive means no such curve, though single readings can be large or run the other way. Potencies of inconclusive entries are doubtful fits and often do not repeat.

The molecules below were run against Flap endonuclease 1 (Homo sapiens) (UniProt P39748) (assay: qHTS Assay for the Inhibitors of Human Flap endonuclease 1 (FEN1).). Settings: Recombinant FEN1 flap cleavage, fluorescence, 15 min; series mostly up to 114 µM.
Chain of UniProt P39748 (P39748 whole entry, looked up): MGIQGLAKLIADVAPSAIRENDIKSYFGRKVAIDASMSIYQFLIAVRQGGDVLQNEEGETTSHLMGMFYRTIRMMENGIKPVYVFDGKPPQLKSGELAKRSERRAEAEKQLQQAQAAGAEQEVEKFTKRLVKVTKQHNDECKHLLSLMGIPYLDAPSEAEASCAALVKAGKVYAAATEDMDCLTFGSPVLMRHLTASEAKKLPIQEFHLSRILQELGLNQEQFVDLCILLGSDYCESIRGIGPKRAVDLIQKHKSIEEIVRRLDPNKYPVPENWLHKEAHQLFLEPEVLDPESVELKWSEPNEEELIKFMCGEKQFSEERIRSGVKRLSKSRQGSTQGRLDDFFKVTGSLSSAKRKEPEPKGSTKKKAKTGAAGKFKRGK
Outline: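 Read-out was taken twice, immediately and after 15 min, following addition of 50 nM substrate to 10 nM FEN1 that had sat with test compound for 15 min at room temperature. Curves came from a four-parameter Hill model.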
Further: nearly all actives have a fitted effect of over 65% in size.
Potency means the concentration at half of the fitted maximal effect; tags describe the fitted curve by direction and shape.

| SMILES | Potency |
| --- | --- |
| Cc1ccc(CN(C(=O)COc2ccc([N+](=O)[O-])cc2)c2ccccn2)o1 | inactive |
| COc1cccc(Oc2cn[nH]c2-c2ccc(OC)cc2O)c1 | inconclusive: 50.1 µM [inhibitor, partial curve, poor fit] |
| CC(=O)Nc1cccc(C(=O)OCC(=O)c2ccc(S(=O)(=O)N3CCCCC3)cc2)c1 | inconclusive: 39.8 µM [inhibitor, single point] |
| COc1ccc(OC)c(/C=c2\sc3nc(-c4cccs4)nn3c2=O)c1 | inactive |
| CCOc1ccc(N(CC)C(=O)CCc2nc(-c3ccccc3F)no2)cc1 | inconclusive: 79.4 µM [inhibitor, partial curve, poor fit] |
| Oc1ccc(N2CCN(c3nc(-c4cccs4)nc4ccccc34)CC2)cc1 | inconclusive: 89.1 µM [inhibitor, partial curve, poor fit] |
| CCn1c(SCC(=O)Nc2ccc3c(c2)c2ccccc2n3CC)nnc1-c1ccco1 | active: 50.1 µM |
| On1onc2c3cc(-c4ccccc4)nc3ccc21 | inconclusive: 89.1 µM [inhibitor, single point] |
| COc1ccc(CCn2c(N)c(C(=O)NCc3ccco3)c3nc4ccccc4nc32)cc1OC | inconclusive: 89.1 µM [inhibitor, single point] |
| Cc1ccsc1/C=N\Nc1cn[nH]c(=O)c1Cl | inconclusive: 89.1 µM [inhibitor, partial curve, poor fit] |
| COc1cc(C2C(C(=O)C(C)(C)C)=C(O)C(=O)N2Cc2ccccc2)ccc1O (configuration not stated) | inconclusive: 89.1 µM [inhibitor, single point] |
| O=C(CN1C(=O)CCC1=O)NC(=O)NC1CCCC1 | inactive |
| Cc1ccc(N2C(=O)N(CC(=O)c3cc(C)ccc3C)C(=O)C2C)cc1 (configuration not stated) | inconclusive: 89.1 µM [inhibitor, partial curve, poor fit] |
| Cc1cc(C)n(-c2nc(SCCN(C)C)c3c4c(sc3n2)CCCC4)n1 | inconclusive: 89.1 µM [inhibitor, single point] |
| O=S(=O)(NC(=NCCc1ccc(Cl)cc1)c1ccccc1Cl)c1cccs1 | inactive |
| Cc1c(C(=O)NCc2ccccc2CN2CCCC2)oc2ccc(F)cc12 | inconclusive: 89.1 µM [inhibitor, partial curve, poor fit] |
| CCOC(=O)C1=C(c2ccccc2)c2ccc(OC)cc2N(S(=O)(=O)C(F)(F)F)C1C(=O)OCC (configuration not stated) | inconclusive: 89.1 µM [inhibitor, partial curve, poor fit] |
| Cc1cccc(CN2CCC(Oc3ccc(C(=O)N4CCCC4)cc3)CC2)n1 | inconclusive: 89.1 µM [inhibitor, single point] |
| CCC(Sc1nc2ncccc2o1)C(=O)Nc1ccc(OC)c(OC)c1 (configuration not stated) | inactive |
| COc1cc(/C=C2\SC(=Nc3cccnc3)NC2=O)cc(OC)c1OC | inactive |
| COc1cc(/C=N/NC(=O)c2ccc(-c3ccccc3)cc2)cc(OC)c1OC | inactive |
| C=CC[C@H](c1ccc(F)cc1)N(CC(C)C)S(=O)(=O)C=C | inactive |
| O=C(COC(=O)c1cccc([N+](=O)[O-])c1)NNC(=O)c1cccs1 | inconclusive: 39.8 µM [inhibitor, single point] |

| SMILES | Potency |
| --- | --- |
| COc1ccc2cc3[n+](cc2c1OC)CCc1cc2c(cc1-3)OCO2 | inconclusive: 44.7 µM [inhibitor, partial curve] and inconclusive: 20 µM [inhibitor, full curve] |
| Cc1ccccc1CCNC(=O)c1ccc2c(c1)nc1n2CCCCC1 | inactive |
| COc1ccccc1NS(=O)(=O)c1cccc(-n2c(O)c(C=Nc3ccccc3C(=O)O)c3ccccc3c2=O)c1 | active: 79.4 µM |
| CC[N+](C)(C)c1ccc(/C=C/c2ccnc3ccccc23)cc1 | active: 39.8 µM |
| Cc1ccc(C)c(C2=NNC(=NCc3ccccc3)SC2)c1 | inactive |
| O=C1NC(=S)/C(=C\c2ccc(-c3ccccc3Cl)o2)S1 | inconclusive: 89.1 µM [inhibitor, single point] |
| O=C(NCCSCc1ccco1)c1ccc(=O)[nH]c1 | inactive |
| Nc1sc(-c2ccccc2)cc1C(=O)N/N=C/c1ccc(Cl)cc1 | inconclusive: 89.1 µM [inhibitor, partial curve, poor fit] |
| C#CCOCCOCCOCCNc1nc(N2CCN(C(=O)[C@H](CCCCN)n3cc([C@@H](N)CC(C)C)nn3)CC2)nc(N2CCN(C(=O)[C@H](Cc3cc4ccccc4[nH]3)n3cc([C@@H](N)Cc4ccc(O)cc4)nn3)CC2)n1 | inconclusive: 50.1 µM [inhibitor, partial curve, poor fit] |
| N=C1/C(=C/c2cccs2)C(=O)N=C2SN=C(SCc3ccccc3)N12 | inconclusive: 50.1 µM [inhibitor, partial curve] |
| CN(C)/C=C/C1=C([N+](=O)[O-])C(c2cccc([N+](=O)[O-])c2)NC(=O)N1 (configuration not stated) | inactive |
| CCN(CC)S(=O)(=O)c1ccc(C(=O)N2CCN=C2SCc2cccnc2)cc1 | inconclusive: 89.1 µM [inhibitor, partial curve, poor fit] |
| CCSc1nc2cc(S(=O)(=O)N3CCOCC3)ccc2o1 | inconclusive: 89.1 µM [inhibitor, single point] |
| [Li+] | inconclusive: 5.32 µM [inhibitor, partial curve, poor fit] |
| NC(=O)C1CCN(S(=O)(=O)c2ccc(N3CCCCS3(=O)=O)cc2)CC1 | inactive |
| O=[N+]([O-])c1cc(-c2nc(-c3ccccc3)no2)ccc1N1CCOCC1 | inactive |
| CC(C)CNc1nc(N)c([N+](=O)[O-])c(N2CCCCCC2)n1 | active: 44.7 µM |
| COC(=O)C1=C(C)N(Cc2ccccc2)C(=NCc2cccc(Cl)c2)N[C@H]1c1cccc(F)c1 | inconclusive: 89.1 µM [inhibitor, partial curve, poor fit] |
| CCN(CC)CCOC(=O)c1ccc(NC(=O)CCCN2C(=O)/C(=C\c3cccs3)SC2=S)cc1 | inconclusive: 44.7 µM [inhibitor, partial curve] |
| CCCn1c(SCC(=O)Nc2cc(Cl)ccc2Cl)n[nH]c1=O | inconclusive: 89.1 µM [inhibitor, single point] |
| O=C(Cn1nc2ccccc2n1)N/N=C/c1cc([N+](=O)[O-])ccc1O | inconclusive: 35.5 µM [inhibitor, single point] |
| NC(=O)c1ccsc1NC(=O)CSc1nnc(Nc2ccccc2)s1 | inconclusive: 44.7 µM [inhibitor, partial curve] |
| N#C/C(=C\c1c[nH]c2ccccc12)C(=O)Nc1ncc(Cc2ccc(Cl)cc2Cl)s1 | inactive |

| SMILES | Potency |
| --- | --- |
| O=[N+]([O-])c1ccc(NCCCNS(=O)(=O)c2ccccc2)c(Cl)c1 | inactive |
| CCN(CC)c1ccc(/C=C/c2sc3ccccc3[n+]2CCCCI)cc1 | inconclusive: 50.1 µM [inhibitor, partial curve, poor fit] |
| Cc1cc(C)c(S(=O)(=O)NCCc2sc3nc(-c4ccc(F)cc4)nn3c2C)c(C)c1 | inconclusive: 79.4 µM [inhibitor, partial curve, poor fit] |
| Cc1nc2ccccc2nc1/C=C/c1ccc(N(C)C)cc1 | inconclusive: 50.1 µM [inhibitor, partial curve] |
| CC(C)(C)C1CCc2c(sc3nc(SCC(N)=O)nc(N)c23)C1 (configuration not stated) | inconclusive: 35.5 µM [inhibitor, partial curve, poor fit] |
| Cc1ccc(N(C)S(=O)(=O)c2ccc3[nH]c(=O)ccc3c2)cc1 | inactive |
| CN(C)CCCNC(=O)/C(=C\c1ccc(-c2ccc(Br)cc2)o1)NC(=O)c1ccccc1 | inconclusive: 39.8 µM [inhibitor, partial curve, poor fit] |
| CC(=O)c1ccc(OCc2cc(C(=O)N3CCN(c4ccccc4)CC3C)no2)cc1 (configuration not stated) | inconclusive: 50.1 µM [inhibitor, partial curve, poor fit] |
| O=C(O)CSc1cc(C(=O)c2cc(F)ccc2O)cn2c(=O)c3c(-c4ccccc4)csc3nc12 | inconclusive: 56.2 µM [inhibitor, partial curve, poor fit] |
| Oc1ccc2ccccc2c1C=Nc1ccccc1Br | inconclusive: 39.8 µM [inhibitor, single point] |
| COC(=O)c1ccc(CCc2cc(O)ccc2O)cc1 | inactive |
| CC(=O)c1cccc(NS(=O)(=O)c2ccc3[nH]c4c(c3c2)CCCCC4)c1 | inconclusive: 44.7 µM [inhibitor, partial curve, poor fit] |
| COc1ccc2nc3cc(Cl)ccc3c(Nc3ccc(O)c(CN4CCN(C)CC4)c3)c2c1 | active: 22.4 µM |
| CC(=O)c1cccc(NC(=O)c2cccc(NC(=O)c3ccco3)c2)c1 | inconclusive: 79.4 µM [inhibitor, single point] |
| O=[N+]([O-])c1ccccc1SN(Cc1ccccc1)c1ccccn1 | inactive |
| CCN(Cc1ccccc1)C(=O)CSc1nc(C)cc(C)c1C#N | inconclusive: 100 µM [inhibitor, partial curve, poor fit] |
| O=C(N/N=C/c1ccc(O)c(Br)c1)c1cc2c(ccc3ccccc32)o1 | inactive |
| O=C1/C(=C\c2ccc(O)c(O)c2)N=C2CCCCCN12 | inactive |
| COc1cccc(-c2nc3c(c(SCC(=O)N4CCOCC4)n2)Cc2c(CO)cnc(C)c2O3)c1 | inconclusive: 79.4 µM [inhibitor, partial curve, poor fit] |
| O=C(N/N=C/c1c[nH]c2ccccc12)c1sc2ccccc2c1Cl | inactive |
| COc1ccc(NC(=O)CSc2nc(-c3cc(OC)c(OC)c(OC)c3)[nH]c2-c2ccc(F)cc2)cc1 | inconclusive: 22.4 µM [inhibitor, partial curve, poor fit] |
